Test results: publication PMC4336329 (PLoS ONE, 2015)
Out of some 310,000 compounds screened, about 2,200 (0.71%) showed an effect of 50% or more. Effects have a minus sign here. The list shows a part of the results.

Each compound was assayed against human ether-à-go-go-related gene (hERG) potassium channel (human, UniProt Q12809) (assay: primary screen, population patch clamp on CHO cells stably expressing hERG).
Chain of human ether-à-go-go-related gene (hERG) potassium channel (Q12809 whole entry, looked up): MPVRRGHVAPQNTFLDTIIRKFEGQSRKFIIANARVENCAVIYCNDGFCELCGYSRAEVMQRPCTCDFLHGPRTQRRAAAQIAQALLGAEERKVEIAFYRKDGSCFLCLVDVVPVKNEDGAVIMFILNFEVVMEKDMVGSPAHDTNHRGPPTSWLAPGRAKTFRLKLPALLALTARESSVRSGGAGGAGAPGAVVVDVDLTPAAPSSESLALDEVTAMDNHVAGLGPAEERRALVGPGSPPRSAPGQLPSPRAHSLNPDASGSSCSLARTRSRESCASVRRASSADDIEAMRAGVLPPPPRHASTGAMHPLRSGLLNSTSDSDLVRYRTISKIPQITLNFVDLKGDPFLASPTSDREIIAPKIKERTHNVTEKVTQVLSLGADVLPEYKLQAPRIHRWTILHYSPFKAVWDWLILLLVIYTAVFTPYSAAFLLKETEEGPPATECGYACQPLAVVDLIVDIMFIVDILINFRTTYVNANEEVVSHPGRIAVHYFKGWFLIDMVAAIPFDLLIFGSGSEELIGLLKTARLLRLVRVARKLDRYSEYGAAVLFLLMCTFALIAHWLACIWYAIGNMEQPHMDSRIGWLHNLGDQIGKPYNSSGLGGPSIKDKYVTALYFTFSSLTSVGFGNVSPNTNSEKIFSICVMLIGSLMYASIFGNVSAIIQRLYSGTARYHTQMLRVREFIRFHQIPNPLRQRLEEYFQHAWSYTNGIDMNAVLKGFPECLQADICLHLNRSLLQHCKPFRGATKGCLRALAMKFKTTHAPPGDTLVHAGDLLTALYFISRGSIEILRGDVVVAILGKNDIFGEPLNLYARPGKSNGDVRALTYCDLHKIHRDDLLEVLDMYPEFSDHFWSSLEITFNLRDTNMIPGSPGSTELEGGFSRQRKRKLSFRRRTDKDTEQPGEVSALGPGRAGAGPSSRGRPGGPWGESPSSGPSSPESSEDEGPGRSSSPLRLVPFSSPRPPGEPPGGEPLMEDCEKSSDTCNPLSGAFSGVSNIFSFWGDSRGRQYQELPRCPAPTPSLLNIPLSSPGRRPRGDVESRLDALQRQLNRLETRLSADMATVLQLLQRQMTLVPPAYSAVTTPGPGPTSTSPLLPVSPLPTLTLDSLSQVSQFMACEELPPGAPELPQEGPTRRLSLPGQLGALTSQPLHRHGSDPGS
With `CC1(C)NC(=O)N(CC(O)COc2ccccc2C(=O)Nc2ccccc2)C1=O` (centres unmarked) the “hERG current change (%, negative = inhibition) at 1uM” value was -3.98%. In the case of `NC(=O)COc1ccccc1C(=O)O`, the “hERG current change (%, negative = inhibition) at 1uM” value is reported as 14.6%. With `CCc1nc2ccc(Br)cc2c(=O)n1-c1ccccc1C(F)(F)F` the “hERG current change (%, negative = inhibition) at 1uM” value was 5.61%. For `Cc1cc(C)n2nc(C(=O)Nc3ccc(S(=O)(=O)N(C)C)cc3)nc2n1`, the “hERG current change (%, negative = inhibition) at 1uM” value was 7.41%. In the case of `CC(C)C[C@@H](CN=[N+]=[N-])N1CCN(CC(C)C)CCC1=O`, the “hERG current change (%, negative = inhibition) at 1uM” value is reported as 2.38%. `Cc1cccc(OCCC(=O)Nc2ccc(Cl)cc2F)c1` was tested, and the “hERG current change (%, negative = inhibition) at 1uM” value was 12.4%. For `Cc1cc(C)n(-c2nnc(NC34CC5CC(CC(C5)C3)C4)nn2)n1`, the “hERG current change (%, negative = inhibition) at 1uM” value was 8.14%. In the case of `Cc1ccc2c(c1)C1CN(C)CCC1N2S(=O)(=O)c1cccc(C(F)(F)F)c1` (centres unmarked), the “hERG current change (%, negative = inhibition) at 1uM” value is reported as -9.99%. `c1ccc(-c2noc(CN3CCN(c4cnccn4)CC3)n2)cc1` was tested, and the “hERG current change (%, negative = inhibition) at 1uM” value was -11%. For `COc1ccc(N2CCN(c3nc4c(c(=O)[nH]c(=O)n4C)n3Cc3cccc(C)c3)CC2)cc1`, the “hERG current change (%, negative = inhibition) at 1uM” value was 5.48%. `COc1ccc(CCNC(=O)CCc2ccc(S(=O)(=O)NC(C)C)cc2)cc1OC` was tested, and the “hERG current change (%, negative = inhibition) at 1uM” value was 7.74%. `Cc1cccc(OCc2nc(C#N)c(NCc3ccc4c(c3)OCO4)o2)c1` was tested, and the “hERG current change (%, negative = inhibition) at 1uM” value was 4.83%. `O=C(CCCCCN1C(=O)C2C3C=CC(C3)C2C1=O)Nc1nccs1` (centres unmarked) was tested, and the “hERG current change (%, negative = inhibition) at 1uM” value was 1.85%. In the case of `CCn1cc[n+](C)c1P(c1ccccc1)c1ccccc1.F[B-](F)(F)F`, the “hERG current change (%, negative = inhibition) at 1uM” value is reported as 4.72%. For `COc1cccc(/C=N/NC(=O)c2cnccn2)c1`, the “hERG current change (%, negative = inhibition) at 1uM” value was 6.99%. With `O=C(CN1C(=O)NC2(CCc3ccccc32)C1=O)Nc1ccccc1OC(F)F` (centres unmarked) the “hERG current change (%, negative = inhibition) at 1uM” value was 17.5%. In the case of `CCc1cc(=O)oc2c(CN3CCN(C)CC3)c(O)c(Cl)cc12`, the “hERG current change (%, negative = inhibition) at 1uM” value is reported as 8.07%. In the case of `CN(C)c1ccc(C(C(=O)NC2CCCC2)N(Cc2cccnc2)C(=O)c2snc(C(N)=O)c2N)cc1` (centres unmarked), the “hERG current change (%, negative = inhibition) at 1uM” value is reported as 11%. In the case of `CC1(C)CC2CC(C)(CN2S(=O)(=O)c2cccc(C(=O)O)c2)C1` (centres unmarked), the “hERG current change (%, negative = inhibition) at 1uM” value is reported as -2.51%. With `C=C(C)CN(CC)C(=O)Cn1cnc2c(oc3ccccc32)c1=O` the “hERG current change (%, negative = inhibition) at 1uM” value was 9.64%. `CCOc1ccc(S(=O)(=O)NCCC(=O)NCc2ccco2)cc1` was tested, and the “hERG current change (%, negative = inhibition) at 1uM” value was 5.35%. With `COc1ccc(-c2nn(C)c(=O)c3ccccc23)cc1CNS(C)(=O)=O` the “hERG current change (%, negative = inhibition) at 1uM” value was 9.98%. With `CCC(C)(C(=O)NC1CCCC1)N(C)C(=O)Cc1c[nH]c2ccccc12` (centres unmarked) the “hERG current change (%, negative = inhibition) at 1uM” value was 11.3%. For `COC(=O)c1ccccc1NC(=O)CN1C(=O)c2ccccc2C1=O`, the “hERG current change (%, negative = inhibition) at 1uM” value was 7.69%. `O=C(COC(=O)/C=C/c1ccc(Br)o1)NCCCN1CCCC1=O` was tested, and the “hERG current change (%, negative = inhibition) at 1uM” value was -5.35%. For `CCN1CCCC(NC(=O)c2cc([N+](=O)[O-])ccc2OC)C1.Cl.O` (centres unmarked), the “hERG current change (%, negative = inhibition) at 1uM” value was 4.49%. `Cc1nnc(-c2cnn(C)c2N)n1Cc1ccccc1` was tested, and the “hERG current change (%, negative = inhibition) at 1uM” value was -6.77%. With `O=C(CN1CCOCC1)Nc1ccc(C2CCCCC2)cc1` the “hERG current change (%, negative = inhibition) at 1uM” value was 1.99%. For `CC(=O)c1cccc(NC(=O)N2CCCC2C(=O)Nc2cccc(C)c2)c1` (centres unmarked), the “hERG current change (%, negative = inhibition) at 1uM” value was -1.62%. `COc1cc(N/C=C2\CC(=O)NC(C)=C2C#N)cc(OC)c1OC` was tested, and the “hERG current change (%, negative = inhibition) at 1uM” value was 23%. In the case of `N#CC1=C(N)OC2=C(C(=O)CC(c3ccccc3)C2)C1c1cccnc1` (centres unmarked), the “hERG current change (%, negative = inhibition) at 1uM” value is reported as 3.41%. `CN(C)C(=O)CSc1nnc(CCCCCNC(=O)OC(C)(C)C)o1` was tested, and the “hERG current change (%, negative = inhibition) at 1uM” value was 3.29%. `COc1cccc(NC(=O)CCN2CCN(C)CC2)c1` was tested, and the “hERG current change (%, negative = inhibition) at 1uM” value was 3.91%. `O=c1c2ccccc2nc(COc2ccccc2)n1/N=C/c1ccc(O)cc1O` was tested, and the “hERG current change (%, negative = inhibition) at 1uM” value was 36%. With `CCOC(=O)Cc1csc(NC(=S)NC(=O)CC(C)C)n1` the “hERG current change (%, negative = inhibition) at 1uM” value was 10.5%. `COc1ccc(CCNC(=O)C(=O)NCc2ccccc2C)cc1OC` was tested, and the “hERG current change (%, negative = inhibition) at 1uM” value was 3.69%. With `COc1ccc(CCN2CC(C(=O)NCCc3ccccc3C(F)(F)F)CCC2=O)cc1` (centres unmarked) the “hERG current change (%, negative = inhibition) at 1uM” value was -10.3%. In the case of `CC(C)(C)OC(=O)N1CCC(c2c(C(=O)N3CCN(C4CCCCC4)CC3)cnn2-c2ccccc2)CC1`, the “hERG current change (%, negative = inhibition) at 1uM” value is reported as -6.43%. For `CCOc1cc(C(=O)Nc2cc(OC)cc(OC)c2)ccc1OCC(=O)N1CCOCC1`, the “hERG current change (%, negative = inhibition) at 1uM” value was 7.59%. With `COC(=O)C1=C(NC(C)=O)CCS1` the “hERG current change (%, negative = inhibition) at 1uM” value was 16.6%. In the case of `O=C(O)c1ccc(/C=C2\SC(=Nc3ccccc3)N(c3ccccc3)C2=O)cc1`, the “hERG current change (%, negative = inhibition) at 1uM” value is reported as 17%. In the case of `Cc1ccc(NC(=O)C(C)OC(=O)c2ccc(Cl)nc2)cc1S(=O)(=O)N1CCOCC1` (centres unmarked), the “hERG current change (%, negative = inhibition) at 1uM” value is reported as 12.2%. In the case of `CC(C)(C)c1ccccc1OCCCCCNCCO`, the “hERG current change (%, negative = inhibition) at 1uM” value is reported as 10.7%. With `O=C(O)C(=O)O.O=[N+]([O-])c1ccc(CNCCc2ccccc2)cc1` the “hERG current change (%, negative = inhibition) at 1uM” value was -15.5%. `CN(C(=O)CSc1ncnc2sccc12)C1CCCCC1` was tested, and the “hERG current change (%, negative = inhibition) at 1uM” value was 3.66%. In the case of `FC(F)Oc1ccc(NC(=S)NCc2ccco2)cc1Cl`, the “hERG current change (%, negative = inhibition) at 1uM” value is reported as 18.5%. With `COc1ccc(-n2c(Cc3cccn3C)nnc2SCC(=O)Nc2ccc(C)cc2)cc1` the “hERG current change (%, negative = inhibition) at 1uM” value was -3.12%. For `O=[N+]([O-])c1ccc(-c2nc(NCc3cccnc3)c3ccccc3n2)cc1`, the “hERG current change (%, negative = inhibition) at 1uM” value was 13.9%. In the case of `Cc1cc(=O)n2nc(N3CCC(C(=O)NCc4ccccc4F)CC3)sc2n1`, the “hERG current change (%, negative = inhibition) at 1uM” value is reported as 9.76%. With `COc1cc(/C=N/NC(=O)c2cccc(C(=O)N/N=C/c3ccc(O)c(OC)c3)n2)ccc1O` the “hERG current change (%, negative = inhibition) at 1uM” value was 13.6%. With `COc1cc(/C=N/NC(=O)c2ccncc2)ccc1OC(=O)c1cc(OC)c(OC)c(OC)c1` the “hERG current change (%, negative = inhibition) at 1uM” value was 9.97%. In the case of `O=C(N/N=C\c1cc(Br)cs1)c1ccncc1`, the “hERG current change (%, negative = inhibition) at 1uM” value is reported as 8.06%. With `CC(C)(C)OC(=O)N1CCN(C(=O)c2ncn(Cc3ccccc3)c2C(=O)N2CCN(C(=O)OC(C)(C)C)CC2)CC1` the “hERG current change (%, negative = inhibition) at 1uM” value was 17.2%. In the case of `C[C@H](NC(=O)c1ccco1)C(=O)NC1CCCCCC1`, the “hERG current change (%, negative = inhibition) at 1uM” value is reported as 0.541%. `Cc1nnsc1Sc1ccccc1` was tested, and the “hERG current change (%, negative = inhibition) at 1uM” value was 9.07%. With `CCCCC(CC(O)COCC(C)C)C(=O)NN` (centres unmarked) the “hERG current change (%, negative = inhibition) at 1uM” value was 7.76%.
